This passage reports AUC and IC50 results from the supplement of paper PMC4967469.

Compound in the test: COc1ncc(-c2ccc3nccc(-c4ccnnc4)c3c2)cc1NS(=O)(=O)c1ccc(F)cc1F [GSK2126458]
In words: Viability of human cancer cell lines after 72 h of drug (GDSC screen). The following applies: top dose inferred. As for the experimental part:
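Human cancer cell lines in 384-well plates, medium with 10% serum, drug for 72 h over a 256-fold dose range (nine 2-fold or five 4-fold steps up to the top dose). Adherent lines were fixed and stained with the nucleic acid dye Syto60, suspension lines read with resazurin; signal relative to control wells, capped at 0 and 100%. One two-parameter sigmoid per drug and line, fitted in a mixed model over all curves with the slope shared within a line.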

The IC50 comes from the fitted curve, where viability falls to half of the control; a fit beyond the top or the lowest dose is shown as a bound at that dose. AUC sums up the same curve from the lowest dose to the 256-fold higher top dose; it is 1 without any effect and falls as sensitivity rises. Where the top dose is marked as inferred, it is not printed in the source and was worked back from the curve model.

By IC50 is commonly meant the concentration that gives 50% inhibition. Consider “JURL-MK1 (chronic myeloid leukaemia, suspension, top dose 0.128 µM)”, for which the AUC was found to be 0.867 and the concentration for half-maximal inhibition (IC50) came out at 115 nM.

For “JVM-2 (lymphoid neoplasm, suspension, top dose 0.128 µM)”, the AUC was 0.895 and the IC50 was above 128 nM.

Take “JVM-3 (lymphoid neoplasm, suspension, top dose 0.128 µM)”: the AUC amounted to 0.907 and the IC50 was above 128 nM.

With “JiyoyeP-2003 (Burkitt lymphoma, suspension, top dose 0.128 µM)”, the AUC was determined as 0.869 and the IC50 worked out at 94.5 nM.

“K2 (melanoma, adherent, top dose 0.128 µM)”: the AUC came out at 0.817 and the 50% inhibitory concentration (IC50) stood at 99.8 nM.

As for “K5 (thyroid, adherent, top dose 0.128 µM)”, the AUC was 0.659 and the IC50 was 21.7 nM.

For “KALS-1 (glioma, adherent, top dose 0.128 µM)”, the AUC was 0.666 and the 50% inhibitory concentration (IC50) amounted to 27.6 nM.

For “KARPAS-45 (lymphoblastic leukaemia, suspension, top dose 1.024 µM)”, the AUC stood at 0.211 and the half-inhibitory concentration (IC50) was found to be 11 nM.

Regarding “KARPAS-231 (B-cell leukaemia, suspension, top dose 0.128 µM)”, the AUC turned out to be 0.146 and the 50% inhibitory concentration (IC50) was found to be 0.954 nM.

As for “KARPAS-299 (anaplastic large cell lymphoma, suspension, top dose 0.128 µM)”, the AUC worked out at 0.877 and the 50% inhibitory concentration (IC50) amounted to 91.8 nM.

For “KARPAS-422 (B-cell lymphoma, suspension, top dose 0.128 µM)”, the AUC amounted to 0.436 and the IC50 was determined as 5.38 nM.

For “KARPAS-620 (haematopoietic neoplasm, suspension, top dose 0.128 µM)”, the AUC was 0.494 and the IC50 is 7.73 nM.

Turning to “KASUMI-1 (acute myeloid leukaemia, suspension, top dose 0.128 µM)”, the AUC was found to be 0.173 and the IC50 was found to be 0.811 nM.

On to “KCL-22 (chronic myeloid leukaemia, suspension, top dose 0.128 µM)”, for which the AUC is 0.564 and the IC50 amounted to 11.6 nM.

As to “KE-37 (lymphoblastic leukaemia, suspension, top dose 1.024 µM)”, the AUC is 0.247 and the IC50 turned out to be 15 nM.

“KELLY (neuroblastoma, adherent, top dose 0.128 µM)”: the AUC is 0.81 and the IC50 came to 60.1 nM.

Regarding “KG-1 (acute myeloid leukaemia, suspension, top dose 0.128 µM)”, the AUC came to 0.643 and the concentration for half-maximal inhibition (IC50) turned out to be 19 nM.

As for “KGN (ovary, adherent, top dose 0.128 µM)”, the AUC is 0.437 and the IC50 came to 5.2 nM.

On to “KINGS-1 (glioma, adherent, top dose 0.128 µM)”, for which the AUC stood at 0.759 and the IC50 was found to be 61.1 nM.

In the case of “KLE (endometrium, adherent, top dose 0.128 µM)”, the AUC amounted to 0.769 and the IC50 is 78.1 nM.

“KM12 (large intestine, adherent, top dose 1.024 µM)”: the AUC was 0.674 and the IC50 was found to be 205 nM.

Regarding “KM-H2 (Hodgkin lymphoma, suspension, top dose 0.128 µM)”, the AUC turned out to be 0.804 and the concentration for half-maximal inhibition (IC50) turned out to be 52.5 nM.

For “KMH-2 (thyroid, adherent, top dose 0.128 µM)”, the AUC turned out to be 0.6 and the half-inhibitory concentration (IC50) came out at 14.5 nM.

In the case of “KMOE-2 (acute myeloid leukaemia, suspension, top dose 0.128 µM)”, the AUC is 0.413 and the IC50 is 4.74 nM.

Take “KMRC-1 (kidney, adherent, top dose 0.128 µM)”: the AUC amounted to 0.975 and the IC50 is above 128 nM.

For the cell line “KMRC-20 (kidney, adherent, top dose 0.128 µM)”, the AUC was 0.966 and the IC50 was above 128 nM.

For the cell line “KMS-11 (myeloma, suspension, top dose 0.128 µM)”, the AUC stood at 0.911 and the IC50 is above 128 nM.

For “KMS-12-BM (myeloma, suspension, top dose 0.128 µM)”, the AUC came out at 0.44 and the IC50 came out at 5.66 nM.

For the cell line “KNS-42 (glioma, adherent, top dose 0.128 µM)”, the AUC is 0.893 and the half-maximal inhibitory concentration (IC50) was above 128 nM.

For the cell line “KNS-81-FD (glioma, adherent, top dose 0.128 µM)”, the AUC was 0.906 and the IC50 is above 128 nM.

With “KON (head and neck, adherent, top dose 0.128 µM)”, the AUC came out at 0.97 and the 50% inhibitory concentration (IC50) was above 128 nM.

Turning to “KOPN-8 (B-cell leukaemia, suspension, top dose 0.128 µM)”, the AUC turned out to be 0.635 and the concentration for half-maximal inhibition (IC50) was found to be 17.7 nM.

As for “KOSC-2 (head and neck, adherent, top dose 0.128 µM)”, the AUC worked out at 0.635 and the IC50 was 19.3 nM.

As to “KP-2 (pancreas, adherent, top dose 0.128 µM)”, the AUC turned out to be 0.54 and the half-inhibitory concentration (IC50) was found to be 10.4 nM.

With “KP-3 (pancreas, adherent, top dose 0.128 µM)”, the AUC came out at 0.749 and the half-inhibitory concentration (IC50) stood at 48.4 nM.

Consider “KP-4 (pancreas, adherent, top dose 0.128 µM)”, for which the AUC came to 0.728 and the half-maximal inhibitory concentration (IC50) was 34.5 nM.

For “KP-N-YN (neuroblastoma, adherent, top dose 0.128 µM)”, the AUC is 0.9 and the IC50 is above 128 nM.

For “KP-N-YS (neuroblastoma, adherent, top dose 0.128 µM)”, the AUC came to 0.801 and the IC50 is 73.3 nM.

In the case of “KS-1 (glioma, adherent, top dose 0.128 µM)”, the AUC stood at 0.496 and the IC50 came out at 7.76 nM.

With “KU812 (chronic myeloid leukaemia, suspension, top dose 0.128 µM)”, the AUC was 0.304 and the concentration for half-maximal inhibition (IC50) turned out to be 2.38 nM.

In the case of “KU-19-19 (bladder, adherent, top dose 0.128 µM)”, the AUC came to 0.961 and the IC50 is above 128 nM.

Regarding “KURAMOCHI (ovary, adherent, top dose 0.128 µM)”, the AUC stood at 0.609 and the concentration for half-maximal inhibition (IC50) came out at 16.7 nM.

Consider “KY821 (leukaemia, suspension, top dose 0.128 µM)”, for which the AUC was determined as 0.882 and the 50% inhibitory concentration (IC50) worked out at 106 nM.

Consider “KYAE-1 (oesophagus, suspension, top dose 0.128 µM)”, for which the AUC turned out to be 0.31 and the half-maximal inhibitory concentration (IC50) was 2.21 nM.

Consider “KYM-1 (rhabdomyosarcoma, adherent, top dose 0.128 µM)”, for which the AUC was found to be 0.884 and the half-inhibitory concentration (IC50) is 104 nM.

Take “KYSE-50 (oesophagus, adherent, top dose 0.128 µM)”: the AUC was found to be 0.398 and the IC50 is 4.3 nM.

Consider “KYSE-70 (oesophagus, adherent, top dose 0.128 µM)”, for which the AUC worked out at 0.886 and the concentration for half-maximal inhibition (IC50) was above 128 nM.

As to “KYSE-140 (oesophagus, adherent, top dose 0.128 µM)”, the AUC amounted to 0.739 and the IC50 was determined as 42.9 nM.

Take “KYSE-150 (oesophagus, adherent, top dose 0.128 µM)”: the AUC turned out to be 0.833 and the IC50 came to 77.7 nM.

“KYSE-180 (oesophagus, adherent, top dose 0.128 µM)”: the AUC was 0.867 and the concentration for half-maximal inhibition (IC50) was found to be 107 nM.

Turning to “KYSE-220 (oesophagus, adherent, top dose 0.128 µM)”, the AUC amounted to 0.441 and the concentration for half-maximal inhibition (IC50) was determined as 5.47 nM.

As to “KYSE-270 (oesophagus, adherent, top dose 0.128 µM)”, the AUC amounted to 0.822 and the IC50 is 60.8 nM.

Consider “KYSE-410 (oesophagus, adherent, top dose 0.128 µM)”, for which the AUC stood at 0.672 and the half-maximal inhibitory concentration (IC50) came to 24.9 nM.

For the cell line “KYSE-450 (oesophagus, adherent, top dose 0.128 µM)”, the AUC came to 0.428 and the IC50 amounted to 5.15 nM.

Turning to “KYSE-510 (oesophagus, adherent, top dose 0.128 µM)”, the AUC amounted to 0.913 and the IC50 is above 128 nM.

“KYSE-520 (oesophagus, adherent, top dose 0.128 µM)”: the AUC amounted to 0.632 and the IC50 came to 21.1 nM.

For the cell line “L-363 (myeloma, suspension, top dose 0.128 µM)”, the AUC was found to be 0.464 and the IC50 came to 6.49 nM.

“L-428 (Hodgkin lymphoma, suspension, top dose 0.128 µM)”: the AUC worked out at 0.89 and the IC50 came to 116 nM.

Take “L-540 (Hodgkin lymphoma, suspension, top dose 0.128 µM)”: the AUC came out at 0.906 and the concentration for half-maximal inhibition (IC50) is above 128 nM.

“L-1236 (Hodgkin lymphoma, suspension, top dose 0.128 µM)”: the AUC was determined as 0.889 and the IC50 is 106 nM.

“LAMA-84 (chronic myeloid leukaemia, suspension, top dose 0.128 µM)”: the AUC is 0.721 and the half-maximal inhibitory concentration (IC50) worked out at 34.3 nM.

Regarding “LAN-6 (neuroblastoma, adherent, top dose 0.128 µM)”, the AUC turned out to be 0.83 and the 50% inhibitory concentration (IC50) was 102 nM.

On to “LB373-MEL-D (melanoma, adherent, top dose 0.128 µM)”, for which the AUC amounted to 0.968 and the concentration for half-maximal inhibition (IC50) was above 128 nM.

With “LB771-HNC (head and neck, adherent, top dose 0.128 µM)”, the AUC amounted to 0.659 and the half-maximal inhibitory concentration (IC50) stood at 24.8 nM.
